The text below walks through data of the supplement of paper PMC11876631.

Substitutions are numbered along the chain they refer to. Numbers in names are those of the source. ± gives the standard deviation of the averaged measurements. Laboratory Escherichia coli strains with one amino-acid change in an essential protein, pooled on minimal glucose agar with carbenicillin or gentamicin at twice the control MIC (plus kanamycin and chloramphenicol for the plasmids), 48 h. Fold change of barcode share against drug-free plates; higher = less susceptible. Active = above 20 in both replicates (the paper's putatively resistant). '<' = one read or none on drug, '>' = one read or none on a drug-free plate. Shares are relative, so most strains fall below 1 when a few take over. Listed are strains with at least 15 reads on both drug-free plates, and hits; most hits rest on fewer reference reads. Replicate rank correlation about 0.5. Edits are read from barcodes.

For the data set, the target named is Escherichia coli (laboratory strain). The data set can be described thus: barcode share on antibiotic plates over drug-free plates; higher = less susceptible. As for the experimental part:
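A pool of E. coli strains, each edited to carry one amino-acid change in an essential protein, was grown for 48 h on minimal glucose agar with or without antibiotic; strain barcodes were sequenced; mean of two replicates.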

Where [1] appears, read: antibiotic: carbenicillin, 2× MIC (3.1 µg/mL).
Setting [2] is: antibiotic: gentamicin, 2× MIC (MIC 0.45 µg/mL).

B1: dapA V40D (protein)
chain: MFTGSIVAIVTPMDEKGNVCRASLKKLIDYHVASGTSAIDSVGTTGESATLNHDEHADVVMMTLDLADGRIPVIAGTGANATAEAISLTQRFNDSGIVGCLTVTPYYNRPSQEGLYQHFKAIAEHTDLPQILYNVPSRTGCDLLPETVGRLAKVKNIIGIKEATGNLTRVNQIKELVSDDFVLLSGDDASALDFMQLGGHGVISVTANVAARDMAQMCKLAAEGHFAEARVINQRLMPLHNKLFVEPNPIPVKWACKELGLVATDTLRLPMTPITDSGRETVRAALKHAGLL
On to B1, for which the “fold change of barcode share” value is 0.328 ± 0.052 under setting [1] and less than 0.0101 under setting [2].

B2: dapA V60Q (protein)
chain: B1 chain with D40V, V60Q
For B2, the “fold change of barcode share” value runs as follows: under setting [1], 0.509 ± 0.21; under setting [2], less than 0.00431.

B3: dapA L101Q (protein)
chain: B1 chain with D40V, L101Q
Take B3: the “fold change of barcode share” value under setting [1] is > 40 [active].

B4: dapA I203A (protein)
chain: B1 chain with D40V, I203A
For the protein B4, the “fold change of barcode share” value under setting [1] is 0.307 ± 0.035 and the “fold change of barcode share” value under setting [2] came to 0.00683 ± 0.0042.

B5: dapA V60A (protein)
chain: B1 chain with D40V, V60A
Turning to B5, the “fold change of barcode share” value runs as follows: under setting [1], 0.305 ± 0.049; under setting [2], less than 0.00483.

B6: dapA V60P (protein)
chain: B1 chain with D40V, V60P
Take B6: the “fold change of barcode share” value under setting [1] was determined as 0.362 ± 0.069 and the “fold change of barcode share” value under setting [2] was less than 0.00464.

B7: dapB F76A (protein)
chain: MHDANIRVAIAGAGGRMGRQLIQAALALEGVQLGAALEREGSSLLGSDAGELAGAGKTGVTVQSSLDAVKDDFDVAIDFTRPEGTLNHLAFCRQHGKGMVIGTTGFDEAGKQAIRDAAADIAIVFAANFSVGVNVMLKLLEKAAKVMGDYTDIEIIEAHHRHKVDAPSGTALAMGEAIAHALDKDLKDCAVYSREGHTGERVPGTIGFATVRAGDIVGEHTAMFADIGERLEITHKASSRMTFANGAVRSALWLSGKESGLFDMRDVLDLNNL
For B7, the “fold change of barcode share” value is 0.341 ± 0.23 under setting [1] and less than 0.00813 under setting [2].

B8: dapB I123A (protein)
chain: B7 chain with A76F, I123A
In the case of B8, the “fold change of barcode share” value by setting is: under setting [1], 0.483 ± 0.11; under setting [2], 0.0878 ± 0.042.

B9: dapB I101A (protein)
chain: B7 chain with A76F, I101A
For B9, the “fold change of barcode share” value runs as follows: under setting [1], 0.422 ± 0.12; under setting [2], 0.00557 ± 0.0022.

B10: dapB F76D (protein)
chain: B7 chain with A76D
On to B10, for which the “fold change of barcode share” value by setting is: under setting [1], 0.938 ± 0.018; under setting [2], less than 0.0105.

B11: dapB V124A (protein)
chain: B7 chain with A76F, V124A
In the case of B11, the “fold change of barcode share” value was 0.527 ± 0.094 under setting [1] and less than 0.0105 under setting [2].

B12: dapB F76Q (protein)
chain: B7 chain with A76Q
For the protein B12, the “fold change of barcode share” value is 0.231 ± 0.13 under setting [1] and less than 0.0148 under setting [2].

B13: dapB I77A (protein)
chain: B7 chain with A76F, I77A
For B13, the “fold change of barcode share” value by setting is: under setting [1], 0.298 ± 0.0064; under setting [2], less than 0.00429.

B14: dapB F76W (protein)
chain: B7 chain with A76W
Take B14: the “fold change of barcode share” value runs as follows: under setting [1], 0.256 ± 0.055; under setting [2], 0.00544 ± 0.0017.

B15: dapB I77W (protein)
chain: B7 chain with A76F, I77W
As for B15, the “fold change of barcode share” value worked out at 0.308 ± 0.017 under setting [1] and 0.0125 ± 0.00019 under setting [2].

B16: dapB V124Q (protein)
chain: B7 chain with A76F, V124Q
Regarding B16, the “fold change of barcode share” value under setting [1] was 0.406 ± 0.15.
